# From the supplement of paper PMC8728848
# The list shows a part of the results.
# Key:
# Assay in all cases: glycan array binding signal (z-score within array); higher = stronger binding
# Settings in all cases: glycan notation: IUPAC condensed, linker removed
# Kdn(a2-3)Gal(b1-3)GlcNAc = target: Kdn(a2-3)Gal(b1-3)GlcNAc
# Outline: (§1)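 Glycan array data came from 3228 arrays in the Consortium for Functional Glycomics database, and only arrays with an available protein sequence were kept. Glycan names were put into IUPAC-condensed notation, and columns mapping to the same glycan were averaged. The binding signal is a within-array Z-score, averaged across arrays of one protein sequence run at different concentrations or buffers and across linkers. A negative Z-score can be read as non-binding.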
# Kdn(a2-3)Gal(b1-4)Glc = target: Kdn(a2-3)Gal(b1-4)Glc
# Outline: as §1
# Kdn(a2-3)Gal(b1-4)GlcNAc = target: Kdn(a2-3)Gal(b1-4)GlcNAc
# Outline: as §1
# [1] = target: Kdn(a2-3)Gal(b1-4)[Fuc(a1-3)]GlcNAc
# Outline: as §1
# Kdn(a2-6)Gal(b1-4)GlcNAc = target: Kdn(a2-6)Gal(b1-4)GlcNAc
# Outline: as §1
# [2] = target: Man(a1-2)Man(a1-2)Man(a1-3)Man
# Outline: as §1
# [3] = target: Man(a1-2)Man(a1-2)Man(a1-6)[Man(a1-3)]Man
# Outline: as §1
# Man(a1-2)Man(a1-3)Man = target: Man(a1-2)Man(a1-3)Man
# Outline: as §1
# [4] = target: Man(a1-2)Man(a1-3)[Man(a1-2)Man(a1-6)]Man
# Outline: as §1
# [5] = target: Man(a1-2)Man(a1-3)[Man(a1-2)Man(a1-6)]Man(a1-6)[Man(a1-2)Man(a1-2)Man(a1-3)]Man
# Outline: as §1
# [6] = target: Man(a1-2)Man(a1-3)[Man(a1-2)Man(a1-6)]Man(a1-6)[Man(a1-2)Man(a1-2)Man(a1-3)]Man(b1-4)GlcNAc(b1-4)GlcNAc
# Outline: as §1
# [7] = target: Man(a1-2)Man(a1-3)[Man(a1-6)]Man(a1-6)[Man(a1-2)Man(a1-3)]Man(b1-4)GlcNAc(b1-4)GlcNAc
# Outline: as §1
# [8] = target: Man(a1-2)Man(a1-6)[Man(a1-3)]Man(a1-6)[Man(a1-2)Man(a1-2)Man(a1-3)]Man
# Outline: as §1
# [9] = target: Man(a1-2)Man(a1-6)[Man(a1-3)]Man(a1-6)[Man(a1-2)Man(a1-2)Man(a1-3)]Man(b1-4)GlcNAc(b1-4)GlcNAc
# Outline: as §1
# Man(a1-3)[Man(a1-6)]Man = target: Man(a1-3)[Man(a1-6)]Man
# Outline: as §1
# [10] = target: Man(a1-3)[Man(a1-6)]Man(a1-6)[Man(a1-2)Man(a1-3)]Man(b1-4)GlcNAc(b1-4)GlcNAc
# Outline: as §1
# [11] = target: Man(a1-3)[Man(a1-6)]Man(a1-6)[Man(a1-3)]Man
# Outline: as §1
# [12] = target: Man(a1-3)[Man(a1-6)]Man(a1-6)[Man(a1-3)]Man(b1-4)GlcNAc(b1-4)GlcNAc
# Outline: as §1
# [13] = target: Man(a1-3)[Man(a1-6)]Man(b1-4)GlcNAc(b1-4)GlcNAc
# Outline: as §1
# [14] = target: Man(a1-3)[Man(a1-6)]Man(b1-4)GlcNAc(b1-4)[Fuc(a1-6)]GlcNAc
# Outline: as §1
# Man(a1-6)Man = target: Man(a1-6)Man
# Outline: as §1
# Man(b1-4)GlcNAc = target: Man(b1-4)GlcNAc
# Outline: as §1
# MurNAc(b1-4)GlcNAc = target: MurNAc(b1-4)GlcNAc
# Outline: as §1
# Neu5Ac(a2-3)Gal = target: Neu5Ac(a2-3)Gal
# Outline: as §1
# [15] = target: Neu5Ac(a2-3)Gal(b1-3)GalNAc
# Outline: as §1
# [16] = target: Neu5Ac(a2-3)Gal(b1-3)GalNAc(b1-3)Gal(a1-4)Gal(b1-4)Glc
# Outline: as §1
# [17] = target: Neu5Ac(a2-3)Gal(b1-3)GalNAc(b1-4)[Neu5Ac(a2-3)]Gal(b1-4)Glc
# Outline: as §1
# [18] = target: Neu5Ac(a2-3)Gal(b1-3)GalNAc(b1-4)[Neu5Ac(a2-8)Neu5Ac(a2-3)]Gal(b1-4)Glc
# Outline: as §1
# [19] = target: Neu5Ac(a2-3)Gal(b1-3)GalNAc6S
# Outline: as §1
# [20] = target: Neu5Ac(a2-3)Gal(b1-3)GlcNAc
# Outline: as §1
# [21] = target: Neu5Ac(a2-3)Gal(b1-3)GlcNAc(b1-2)Man
# Outline: as §1
# [22] = target: Neu5Ac(a2-3)Gal(b1-3)GlcNAc(b1-2)Man(a1-3)[GlcNAc(b1-4)][Neu5Ac(a2-3)Gal(b1-3)GlcNAc(b1-2)Man(a1-6)]Man(b1-4)GlcNAc(b1-4)GlcNAc
# Outline: as §1
# [23] = target: Neu5Ac(a2-3)Gal(b1-3)GlcNAc(b1-2)Man(a1-3)[Neu5Ac(a2-3)Gal(b1-3)GlcNAc(b1-2)Man(a1-6)]Man(b1-4)GlcNAc(b1-4)GlcNAc
# Outline: as §1
# [24] = target: Neu5Ac(a2-3)Gal(b1-3)GlcNAc(b1-3)Gal(b1-3)GlcNAc
# Outline: as §1
# [25] = target: Neu5Ac(a2-3)Gal(b1-3)GlcNAc(b1-3)Gal(b1-4)GlcNAc
# Outline: as §1
# [26] = target: Neu5Ac(a2-3)Gal(b1-3)GlcNAc(b1-3)GalNAc
# Outline: as §1
# [27] = target: Neu5Ac(a2-3)Gal(b1-3)GlcNAc(b1-4)Gal(b1-4)Glc
# Outline: as §1
# [28] = target: Neu5Ac(a2-3)Gal(b1-3)GlcNAc(b1-6)GalNAc
# Outline: as §1
binder,measurement,setting,value
"Epa6 (Candida glabrata), Q6DTM7_CANGB (protein) MGSSHHHHHHSSGLVPRGSHMKDDYSSSLSNNNLGWTDPTEFPLGCSPNVTTPKNGLSMELYSYDYLKSGSNPCWDAAYLDPNYPRTGYKSHRLLAKVENVAGNINFYYHAPMGCTSLFDTLPQAYNYRTPLTMTNFTMLLYGYFKPKVTGYHTFTISADDLLFVNFGAGNAFDCCKRESSADDFGNYQAYAVWGSQTAKDDLTVHLDAGLYYPIRIFFNNRDNDGALSLTLKTESDPNPVIDFSDYFYSFDDTKDGCPGLVSYDTS",glycan array binding signal (z-score),Kdn(a2-3)Gal(b1-3)GlcNAc,-0.254
same,glycan array binding signal (z-score),Kdn(a2-3)Gal(b1-4)Glc,-0.252
same,glycan array binding signal (z-score),Kdn(a2-3)Gal(b1-4)GlcNAc,-0.133
same,glycan array binding signal (z-score),[1],-0.178
same,glycan array binding signal (z-score),Kdn(a2-6)Gal(b1-4)GlcNAc,-0.277
same,glycan array binding signal (z-score),[2],-0.232
same,glycan array binding signal (z-score),[3],-0.308
same,glycan array binding signal (z-score),Man(a1-2)Man(a1-3)Man,-0.286
same,glycan array binding signal (z-score),[4],-0.325
same,glycan array binding signal (z-score),[5],-0.287
same,glycan array binding signal (z-score),[6],-0.229
same,glycan array binding signal (z-score),[7],-0.282
same,glycan array binding signal (z-score),[8],-0.315
same,glycan array binding signal (z-score),[9],-0.347
same,glycan array binding signal (z-score),Man(a1-3)[Man(a1-6)]Man,-0.311
same,glycan array binding signal (z-score),[10],-0.257
same,glycan array binding signal (z-score),[11],-0.281
same,glycan array binding signal (z-score),[12],-0.243
same,glycan array binding signal (z-score),[13],-0.312
same,glycan array binding signal (z-score),[14],-0.322
same,glycan array binding signal (z-score),Man(a1-6)Man,-0.325
same,glycan array binding signal (z-score),Man(b1-4)GlcNAc,-0.332
same,glycan array binding signal (z-score),MurNAc(b1-4)GlcNAc,-0.339
same,glycan array binding signal (z-score),Neu5Ac(a2-3)Gal,-0.285
same,glycan array binding signal (z-score),[15],-0.316
same,glycan array binding signal (z-score),[16],-0.271
same,glycan array binding signal (z-score),[17],-0.277
same,glycan array binding signal (z-score),[18],-0.208
same,glycan array binding signal (z-score),[19],-0.325
same,glycan array binding signal (z-score),[20],-0.298
same,glycan array binding signal (z-score),[21],-0.305
same,glycan array binding signal (z-score),[22],-0.317
same,glycan array binding signal (z-score),[23],-0.316
same,glycan array binding signal (z-score),[24],-0.298
same,glycan array binding signal (z-score),[25],-0.325
same,glycan array binding signal (z-score),[26],-0.341
same,glycan array binding signal (z-score),[27],-0.269
same,glycan array binding signal (z-score),[28],-0.296
